SMILES strings stand for the structures. The list shows a part of the results.

The assay concerns T1, C. trachomatis L2/434/Bu expressing GFP (CTL2-GFP).
T1 construct: L2/434/Bu GFP intracellular growth in HeLa cells
Details: species or system HeLa; C. trachomatis total inclusion area by high-content imaging, normalised to DMSO. The following applies: total inclusion area; 28.5 h, 10 µM; inhibitor. The method, boiled down:
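Bulk GFP and resorufin signals were read first. Wells were then fixed, stained with Hoechst and imaged to detect GFP inclusions and host nuclei. MICs followed the previously described calculation.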
Regarding `Cc1ccc(-c2csc3c(=O)[nH]c(N4CCCC(C(=O)NCC(N)=O)C4)nc23)cc1` (stereo not drawn) [CBK215542], the “% of control remaining” value is on record as 112.831.

For the compound `Cc1ccc2c(c1)C1(CCN(CC3CC3)CC1)NC(=O)C2` [CBK040217], the “% of control remaining” value is recorded as 70.9438. With `O=C(O)CSCc1ccc(C(=O)O)o1` [CBK263267] the figure was 107.288. With `CN1CCC(N(C)C(=O)NCCCN2CCCC2=O)C1` (stereo not drawn) [CBK156021] the figure was 96.5827; with `O=C(NCc1cccnc1)c1ccccc1-n1cccc1` [CBK149602], 81.3625. For `O=C(CCCOc1ccccc1)NCc1ccc(OC2CCNCC2)cc1` [CBK028427T] the value was 100.358; for `CCC1CCCCN1C(=O)c1cc2cc(Cl)ccc2[nH]1` (stereo not drawn) [CBK074329], 114.77. Take `Cc1cccc(CN(CC(=O)Nc2ccc3c(c2)OCCO3)S(=O)(=O)c2ccc(Cl)cc2)c1` [CBK264910]: the “% of control remaining” value was determined as 88.607.

In the case of `O=C1COc2ccccc2C/C=C/CC2(CCNCC2)C(=O)NCCN1` [CBK291996], the “% of control remaining” value is recorded as 91.6597. With `O=C1COc2ccccc2CCCC[C@@H]2CN(C(=O)CCN3CCCC3=O)CC[C@H]2N1` [CBK292044] the figure was 90.3079; with `CN1CCC(N(C)C(=O)Nc2ccc3[nH]ccc3c2)C1` (stereo not drawn) [CBK156006], 79.6682. For `O=C(NCc1cc(Br)ccc1F)C1CC(=O)N(Cc2ccccn2)C1` (stereo not drawn) [CBK305242] the value was 76.1405. For `COC(=O)c1ccc(NC(=O)Cn2nnc(-c3ccc(CN4CCOCC4)cc3)n2)cc1` [CBK134589] the value was 87.463; for `O=C(O)CCc1nn2c3ccccc3n(CCN3CCCCC3)c2nc1=O` [CBK267519], 88.3783.

Regarding `Cc1ccc(S(=O)(=O)N2CCC(OC(N)=O)CC2)cc1` [CBK003369], the “% of control remaining” value turned out to be 84.5111. Take `NS(=O)(=O)c1ccc(CNS(=O)(=O)Cc2ccccc2)cc1` [CBK228048]: the “% of control remaining” value worked out at 90.5274. For `Cc1onc(-c2ccccc2)c1CNC(=O)CC1CCCCC1` [CBK144078] the value was 75.8449; for `C=CCOc1nc2c(=O)[nH]c(/N=C/N(C)C)nc2n1C1CC(O)C(CO)O1` (stereo not drawn) [CBK201299], 96.8607. For `Cc1cc(C)nc(N2CCC(CC(=O)NCC(C)N3CCCCCC3)CC2)n1` (stereo not drawn) [CBK286029], the “% of control remaining” value turned out to be 77.2891. For `O=C(CSc1nnc2ccc3ccccc3n12)Nc1nsc(-c2ccc(Cl)cc2)n1` [CBK266460] the value was 94.7644; for `CCc1nnc(NS(=O)(=O)c2c(C)nn(C)c2Cl)s1` [CBK062180], 93.0941. For `O=C(O)C(c1c[nH]c2ccccc12)N1CCOCC1` (stereo not drawn) [CBK286739] the value was 93.3128; for `COc1ccc(-c2ccc(=O)n(CCN)n2)cc1` [CBK270130C], 103.826. As to `CCOc1cc(OCC)cc(C(=O)N2CCC3(CC2)CC(=O)c2cc(CC)ccc2O3)c1` [CBK168009], the “% of control remaining” value turned out to be 117.396.

For `CN(C(=O)c1c[nH]nc1-c1ccc(CNC(=O)Cc2ccc(F)cc2)cc1)c1ccccc1` [CBK285599], the “% of control remaining” value is on record as 104.106. With `N#C/C(=C\c1ccc(Oc2ccc(C(F)(F)F)cc2[N+](=O)[O-])cc1)c1nc2ccccc2[nH]1` [CBK263878] the figure was 84.0345.

For `Cc1ccc(Cc2cnc(NC(=O)CN3CCCCC3)s2)cc1Cl` [CBK307299], the “% of control remaining” value is reported as 103.011.

For `CC(CC(=O)O)CC(=O)NC1CCN(Cc2ccccc2)CC1` (stereo not drawn) [CBK287042], the “% of control remaining” value was found to be 86.4402.

For `O=c1[nH]c(=O)n([C@H]2C[C@@H](O)[C@@H](CO)O2)cc1O` [CBK201317], the “% of control remaining” value came to 95.5866.

For `CCN1CCN(c2ccc(C(=O)OC)cc2NC(=O)c2ccc(C#N)cc2F)CC1` [CBK270171], the “% of control remaining” value was 98.6969.

For `CC1CCN(Cc2ccc(-c3cn(CC(=O)NCc4ccc(Br)cc4)cn3)cc2)CC1` [CBK165969], the “% of control remaining” value was determined as 71.4782.

With `O=C(CCCN[C@H]1CC[C@](O)(c2ccc(F)cc2)CC1)c1ccc(F)cc1` [CBK023258C], the “% of control remaining” value came out at 58.7522. For `O=S(=O)(Nc1cccnc1N1CCOCC1)c1cc(C(F)(F)F)cc(C(F)(F)F)c1` [CBK062306] the value was 118.849; for `CCn1cc(C(=O)O)c(=O)c2cnc(N3CCN(C(=S)Nc4cc5oc6ccccc6c5cc4OC)CC3)nc21` [CBK267929], 105.26; for `COc1ccc(C=C2CCCC3C2=NN(C(=O)CCC(=O)O)C3c2ccc(OC)c(OC)c2)cc1OC` (stereo not drawn) [CBK296070], 90.7885.

For the compound `O=C(CSc1nnc(-c2ccc(Cl)cc2)n1-c1ccccc1)N/N=C/c1ccccn1` [CBK263001], the “% of control remaining” value came out at 102.121. For `O=c1cc(CN2CCc3ccccc3C2)[nH]c(=O)[nH]1` [CBK126401] the value was 90.9439.

As to `O=C(CSc1nccn1-c1ccccc1)Nc1ccc(F)cc1` [CBK287399], the “% of control remaining” value was determined as 110.248. With `O=C(CSc1nnc(-c2ccc(Cl)cc2Cl)o1)c1ccc2c(c1)OCCO2` [CBK268839] the figure was 96.6045; with `CCOC(=O)N1CCN(C(=O)c2ccc(CS(=O)(=O)c3ccc(C)cc3)cc2)CC1` [CBK268659], 133.732; with `c1ccc(-c2cc(CC3(NCc4c[nH]c5ccccc45)COC3)no2)nc1` [CBK289250], 92.6552. With `CN1CCN(C(=O)c2[nH]c3ccccc3c2NS(=O)(=O)/C=C/c2ccccc2)CC1` [CBK050047], the “% of control remaining” value worked out at 63.8696. With `CCCC1=NNC(=O)/C1=C\c1cnc[nH]1` [CBK067767] the figure was 90.6957; with `CS(=O)(=O)N1CCCc2cc(-c3csc(N)n3)ccc21` [CBK305859], 5.674. With `CCC1CN(Cc2ccccc2)CCN1c1cncc(Cl)n1` (stereo not drawn) [CBK003645] the figure was 92.1542; with `CC(C)C(=O)N1CCC(n2nc(C3CC3)ccc2=O)CC1` [CBK282351], 61.3273. For `CCc1nc2ccc(C(=O)Nc3ccc(Cl)c(Cl)c3)cn2c1N(CC)CCOC` [CBK146042] the value was 97.1437; for `COc1cc(Nc2cncc(-c3cccnc3)n2)cc(OC)c1OC` [CBK065201], 146.506; for `CN(CCN1CCCCC1)C(=O)CCc1cn(C)c2ccccc12` [CBK281906], 83.5345. As for `O=C(C1CCCC1)N1CC(n2nc(-c3ccccc3)ccc2=O)C1` [CBK284617], the “% of control remaining” value is on record as 106.88. `Cc1ccc2[nH]c([C@H]3CCN(C(=O)NC(C)C)C3)nc2c1` [CBK289375]: the “% of control remaining” value is 106.782. Consider `O=C(COc1ccc(Br)cc1)Nc1ccc(Cl)c(-c2nc3ccccc3[nH]2)c1` [CBK263075], for which the “% of control remaining” value is 98.8914.

In the case of `COCCNc1nc(-c2ccc([N+](=O)[O-])cc2)nc2ccccc12` [CBK264819], the “% of control remaining” value is 106.578.

In the case of `Cc1nn(C)c(C)c1OCC(=O)Nc1nc2c(cc1C#N)CCC2` [CBK306371], the “% of control remaining” value was 63.0545. For `NC(=O)CN1CC2(CCN(CCCCC3NC(=O)NC3=O)CC2)c2ccccc21` (stereo not drawn) [CBK126799] the value was 93.0519; for `CC(=O)Nc1ccc(CNC(=O)c2ccc[nH]2)cc1` [CBK304538], 83.4403; for `O=C(O)c1cccc(NS(=O)(=O)c2cccnc2)c1` [CBK155700], 80.9658. For `Cn1cc(CNCC2CCN(c3ccccc3)C2)c(-c2cccnc2)n1` (stereo not drawn) [CBK304155] the value was 98.0932; for `CC(=O)N1CCC2(CCCC[C@H]3CN(C(=O)C(C)C)CC[C@@H]3NC(=O)CNC2=O)CC1` [CBK292121], 112.122; for `c1coc(CNc2nccnc2-c2cccs2)c1` [CBK036618], 88.6758. With `O=C(c1ccccc1F)N1C[C@H](c2ccsc2)[C@H]2CN(Cc3ccccc3F)CC[C@H]21` [CBK285656] the figure was 58.8969; with `Cc1ccc(OC(C)C(=O)Nc2ccc(S(=O)(=O)Nc3cc(C)on3)cc2)cc1` (stereo not drawn) [CBK268757], 77.0682; with `COC(=O)c1c(NC(=S)N2CCN(Cc3c(C)nn(C)c3C)CC2)sc2c1CCC(C)C2` (stereo not drawn) [CBK267103], 107.215. Turning to `O=C(Cn1nc(N2CCSCC2)ccc1=O)Nc1ccccc1` [CBK307623], the “% of control remaining” value came out at 112.293. With `COc1cc(NC(=O)c2ccc3c(c2)C(=O)N(c2ccccc2OC)C3=O)c(C(=O)O)cc1OC` [CBK262787] the figure was 117.636; with `COCCNc1nc2c(c(N3CCCCCC3)n1)CCNCC2` [CBK306724], 1.407; with `O=C(c1cc(-c2ccncc2)nc2ccc(Cl)cc12)N1CCN(CCc2ccccc2)CC1` [CBK267719], 95.6506.

Turning to `CC1CCCC(C)N1CC(=O)Nc1ccccc1Oc1ccccc1` (stereo not drawn) [CBK015824C], the “% of control remaining” value came to 61.5481.

Regarding `O=C(O)c1ccc(/C=N/Nc2nc(N3CCOCC3)nc(N3CCOCC3)n2)cc1` [CBK262433], the “% of control remaining” value came out at 95.1568.

Consider `C=CCOc1ccc(CNc2cccc(C(=O)O)c2)cc1OC` [CBK074468], for which the “% of control remaining” value came out at 89.5918. For `Cc1ccc(OCC(=O)NCCCN(C)C)cc1` [CBK263595] the value was 98.5769; for `Cc1ncccc1COC(=O)NCCc1ccccn1` [CBK200137], 130.443. For `CCOC(=O)C(C)N1C(=O)S/C(=C/c2cc(Cl)c(OCC(=O)O)c(Br)c2)C1=O` (stereo not drawn) [CBK265163] the value was 101.682. With `O=c1cc(C(F)F)c2cn(C3CCCC3)nc2[nH]1` [CBK288016] the figure was 95.8646; with `O=C(c1n[nH]c2c1CCC2)N1CCC(c2ccccc2)C1` (stereo not drawn) [CBK281851], 77.7463. As for `COc1ccc(NC(=O)Nc2nn(Cc3c(F)cccc3Cl)cc2Br)c(OC)c1` [CBK266834], the “% of control remaining” value came out at 109.479.

For `Cc1ccccc1C(=O)NCC(=O)NCc1csc(-c2ccccc2)n1` [CBK092334], the “% of control remaining” value is on record as 116.363.

Consider `CCN(Cc1ccccc1)Cc1c(O)ccc2c(=O)c(-c3ccccc3OC)c(C(F)(F)F)oc12` [CBK265839], for which the “% of control remaining” value worked out at 81.9485.

The values are drawn from PMC12040169 (PLOS Biology, 2025).
